Out of some 45,000 compounds screened, about 200 (0.44%) were called active. Inconclusive results (about 7%) are left out. The call rests on the fitted dose curve; in most records, active means well fitted activation curve with a large enough effect; inconclusive means small, poorly fitted or top-dose-only effect; inactive means no such curve, though single readings can be large or run the other way. This is one part of the list. Peptide text beside a SMILES is read from it. * marks the point of attachment. Boc = CC(C)(C)OC(=O)*; Bn = c1ccc(C*)cc1

The experiment can be described thus: qHTS of TDP-43 Inhibitors: NCGC Sytravon Library Screen. Further: 0% is about no effect; nearly all actives have a fitted effect of over 55% in size. The note with it: yeast TDP-43 toxicity rescue, BacTiter-Glo growth, 24 h; series mostly up to 46.1 µM; growth rescue (activation): at the top concentration. The gist of the method:
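TDP-43-expressing yeast, pregrown in raffinose, seeded at OD600 0.02 in galactose medium with compound for 24 hr at 30 deg C. Growth read by BacTiter-Glo luminescence, so rescue of toxicity appears as activation.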
(In general: In qHTS, concentration-response curves come from the screen itself.)
For the compound `CCN(CC)c1nc(-c2ccc(Cl)cc2)cc(C(F)(F)F)c1C#N`, the “growth rescue (activation)” value is inactive: -24%.
`COc1ccc(CC(=O)Nc2cc3oc4ccccc4c3cc2OC)cc1`: the “growth rescue (activation)” value is inactive: -3.02%.
Take `CN1C(=O)NC(c2ccccc2Cl)C2=C1CC(C)(C)CC2=O` (stereo not given): the “growth rescue (activation)” value is inactive: -5.2%.
On to `CCOc1cc(/C=N/NC(=O)C(C)Sc2ccccn2)ccc1O` (stereo not given), for which the “growth rescue (activation)” value was inactive: 21.4%.
As for `COc1ccc(CNC(=O)c2cc(-c3cc(C)ccc3O)n[nH]2)cc1`, the figure is inactive: 8.7%; as for `C=CCOCCN(C)C1=NS(=O)(=O)c2cc([N+](=O)[O-])ccc21`, inactive: 29.6%; as for `Cc1cc(NS(=O)(=O)c2ccc(NC(=O)COc3ccc(Cl)c(C)c3)cc2)no1`, inactive: 14.9%.
As for `Cc1nnc(SCC(=O)NNC(=O)c2ccccc2)n1-c1ccccc1`, the figure is inactive: 11.1%.
Regarding `Cc1ccc(-c2noc(C3CCCN(C(=O)c4cccc(Cl)c4)C3)n2)o1` (stereo not given), the “growth rescue (activation)” value was inactive: 12.8%.
Turning to `CCOC(=O)c1c(C)oc2cc(Cl)c(O)c(CN(C)C)c12`, the “growth rescue (activation)” value was inactive: 24.9%.
On to `Cc1noc(C)c1C(=O)OCC(=O)NCCc1ccc(S(N)(=O)=O)cc1`, for which the “growth rescue (activation)” value was inactive: 11.9%.
Regarding `CCN(Cc1nc2ccccc2c(=O)[nH]1)C(=O)c1cccc(NC(=O)c2cccs2)c1`, the “growth rescue (activation)” value was inactive: -1.55%.
Turning to `CCOC(=O)c1ccc(COC(=O)CNS(=O)(=O)c2ccccc2)cc1`, the “growth rescue (activation)” value was inactive: 3.69%.
As to `CC(C)CC(NC(=O)C(CC(C)C)NC(=O)C(Cc1ccc(OCc2ccccc2)cc1)NC(=O)OC(C)(C)C)C(N)=O` (stereo not drawn) (Boc-Tyr(Bn)-Leu-Leu-NH2; configuration not given here), the “growth rescue (activation)” value is inactive: -19.7%.
Turning to `O=C(NNC(=O)c1cccs1)c1cccnc1`, the “growth rescue (activation)” value was inactive: -1.62%.
`CCN(CC)C(=O)c1cccc(-c2csc(C(C)(NC(C)=O)c3ccccc3)n2)c1` (stereo not given): the “growth rescue (activation)” value was inactive: 3.35%.
With `CC1=NN(C(=O)c2ccccc2Cl)C(O)(c2cccnc2)C1` (stereo not given) the figure was inactive: -10.3%; with `COc1ccc(C(=O)OCC(=O)c2ccc3c(c2)NC(=O)CO3)cc1[N+](=O)[O-]`, inactive: -6.6%; with `CC(=O)Oc1ccccc1C(=O)Nc1ccccc1C(=O)N1CCCCC1`, inactive: -2.14%.
With `COc1ccc(-n2nc(C(=O)NCC(=O)Nc3cc(OC)c(OC)c(OC)c3)c3ccccc3c2=O)cc1Cl`, the “growth rescue (activation)” value was inactive: 0.212%.
`Fc1ccc(CN2C3=NCCCN3c3ccccc32)cc1`: the “growth rescue (activation)” value was inactive: 22.6%.
As for `O=C(OCC(=O)N1CCCC1)c1cc(Cl)ccc1[N+](=O)[O-]`, the figure is inactive: -1.14%.
As for `COc1ccc(NC(=O)C/C(C)=N/NC(=O)c2ccco2)c([N+](=O)[O-])c1`, the “growth rescue (activation)” value was inactive: 3.48%.
In the case of `Cc1ccc(-c2nc3ncccc3o2)cc1NC(=S)NC(=O)c1ccco1`, the “growth rescue (activation)” value is inactive: 4.1%.
Consider `CCNC(=O)n1cc(-n2cncn2)c(-c2ccccc2)n1`, for which the “growth rescue (activation)” value is inactive: 0.992%.
As for `O=C1CN(C(=O)COc2ccc(Cl)c(Cl)c2)c2ccccc2N1`, the “growth rescue (activation)” value was inactive: 16.3%.
Take `CCOC(=O)C1CCCN(C(=O)c2ccc(Cl)c(S(=O)(=O)N3CCCCCC3)c2)C1` (stereo not given): the “growth rescue (activation)” value is inactive: 12.5%.
For the compound `Clc1ccc2c(NCc3ccccc3)ccnc2c1`, the “growth rescue (activation)” value was inactive: 5.72%.
With `CCOC(=O)c1c(NC(=O)Cn2cnc([N+](=O)[O-])n2)sc(C)c1C` the figure was inactive: 4.65%.
`COc1ccc(-c2csc(=NCCO)n2-c2ccccc2)cc1`: the “growth rescue (activation)” value is inactive: 16.2%.
For `Cc1c(Br)cccc1NC(=O)C1(C)CCN1Cc1ccc(OC(C)C)cc1` (stereo not given), the “growth rescue (activation)” value is inactive: 18.8%.
Turning to `COc1ccc(N2C(=O)C3CCCCC3C2=O)cc1NC(=O)c1ccccc1` (stereo not given), the “growth rescue (activation)” value was inactive: 0.124%.
On to `O=C(NC1CCCC1)c1cccc(Oc2ccccc2)c1`, for which the “growth rescue (activation)” value is inactive: 19.7%.
As for `CCNC(=S)Nc1ccc2c(c1)c(=O)n(C)n2-c1ccc(C(C)(C)C)cc1`, the “growth rescue (activation)” value is inactive: 14.7%.
Regarding `C=CCn1c(SCC(N)=O)nnc1-c1cnccn1`, the “growth rescue (activation)” value is inactive: -7.51%.
With `CN(C#N)c1nc(N2CCOCC2)nc(N2CCOCC2)n1` the figure was inactive: 31.6%; with `Nc1nc(Cl)cc(Oc2ccccc2F)n1`, inactive: 34.1%; with `CCOc1ncccc1C(=O)Nc1c(C)n(C)n(-c2ccccc2)c1=O`, inactive: 16.1%.
With `Cc1ccc(OCC(=O)Nc2nnc(S(=O)(=O)N3CCC(C)CC3)s2)cc1`, the “growth rescue (activation)” value was inactive: -7.73%.
For the compound `COc1ccc(C(=O)O/N=C(/c2ccccc2)c2ccncc2)cc1`, the “growth rescue (activation)” value was inactive: 6.51%.
For the compound `COC(=O)C1=NNC(C(=O)c2ccco2)C1c1ccccc1` (stereo not given), the “growth rescue (activation)” value was inactive: 5.14%.
Turning to `CCN1CCN(CCC(=O)Nc2ccc(Br)cc2)CC1`, the “growth rescue (activation)” value is inactive: -5.76%.
With `CCCC(c1nnnn1CS(=O)(=O)c1ccc(C)cc1)N1CCN(C2CCCC2)CC1` (stereo not given) the figure was inactive: -3.69%; with `CCCOc1ccc(/C=N/NC(=O)CSc2ccccn2)cc1OC`, inactive: 16.6%; with `Cc1ccc(C(=O)NN(CCC#N)C2=NS(=O)(=O)c3ccccc32)cc1`, inactive: -6.88%.
Consider `O=C(NCC1CCCO1)c1nn2c(C(F)(F)F)cc(-c3cc(Br)cs3)nc2c1Br` (stereo not given), for which the “growth rescue (activation)” value was inactive: 4.67%.
Turning to `COc1ccc(NC(=S)N2CCC(N(C)CCN3CCOCC3)CC2)cc1Cl`, the “growth rescue (activation)” value was inactive: 9.8%.
In the case of `COc1ccc2nc(Cl)cc(Cl)c2c1`, the “growth rescue (activation)” value was inactive: -7.84%.
On to `O=C(NCCC1=CCCCC1)C1CCN(S(=O)(=O)c2ccccc2)CC1`, for which the “growth rescue (activation)” value was inactive: -6.71%.
`COc1ccc(NC(=O)c2cc(C3CCCCN3S(=O)(=O)c3ccccc3)on2)c(C)c1` (stereo not given): the “growth rescue (activation)” value was inactive: 19.1%.
Turning to `CCCn1nnnc1NC(=O)COc1ccc(Cl)c(C)c1`, the “growth rescue (activation)” value was inactive: 29.8%.
Consider `CC(=O)NC1=NN(C(C)=O)C(c2ccc(F)cc2)S1` (stereo not given), for which the “growth rescue (activation)” value was inactive: -4.48%.
Consider `CC(C)(C)c1ccc(/C=N/Nc2ccc(C(=O)O)cc2)cc1`, for which the “growth rescue (activation)” value is inactive: -82.3%.
Take `CCCOc1ccc2cc(-c3ccccn3)c(=O)oc2c1`: the “growth rescue (activation)” value is inactive: -15.1%.
With `COc1ccccc1CCC(=O)OCC(=O)Nc1c(Br)cc(C)cc1Br` the figure was inactive: 3.73%.

The values are drawn from PubChem BioAssay AID1347073 (National Center for Advancing Translational Sciences (NCATS), 2019).
